# Laboratory results as given in PubChem BioAssay AID493208 (National Center for Advancing Translational Sciences (NCATS), 2011).
# About 340 (0.77%) of roughly 44,000 compounds were called active. About 5% were inconclusive and are not listed. The call rests on the fitted dose curve; in most records, active means well fitted inhibition curve with a large enough effect; inconclusive means small, poorly fitted or top-dose-only effect; inactive means flat fitted curve, though single readings scatter. The list shows a part of the results.
# Assay: Acumen qHTS Assay for Inhibitors of the mTORC1 Signaling Pathway in MEF (Tsc2-/-, p53-/-) Cells: Sytravon;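 further: plate controls were DMSO for no effect and rapamycin for full effect; nearly all actives have a fitted effect of over 50% in size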
# Conditions: phospho-rpS6 immunofluorescence/PI, 24 h; series mostly up to 38.3 µM; activity change, negative = inhibition: at the top concentration
# In short: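 Compounds act on Tsc2-/-, p53-/- fibroblasts carrying an empty vector for 24 h before fixation and dual staining for phospho-S6 and DNA (propidium iodide). Values are percentages of cells above a rapamycin-defined pS6/PI threshold.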
row,SMILES,"activity change, negative = inhibition"
1,Cc1ccc(Cn2cc(C(=O)c3ccc(F)cc3)c(=O)c3cc4c(cc32)OCCO4)cc1,inactive: 5.81%
2,CCOc1ccccc1CNCCNC(=O)c1nonc1N,inactive: -9.16%
3,COc1cc(OC)c(NC(=O)CC(c2cccs2)N2Cc3ccccc3C2=O)cc1Cl (stereo not given),inactive: -6.86%
4,Cc1ccc2c(c1)c1c(c(=O)n(-c3ccccc3C)c(=O)n1CC(=O)N1CCCC1)n2C,inactive: -0.68%
5,Cc1ccccc1Nc1sc(C(=O)c2ccccc2)c(N)c1C(=O)NCc1ccc(Cl)cc1,inactive: -7.22%
6,Cc1ccc2ncc3c(-c4ccc(F)cc4)nn(-c4cccc(F)c4)c3c2c1,inactive: 4.71%
7,Cc1ccc(S(=O)(=O)c2cn(CC(=O)Nc3ccc4c(c3)OCO4)c3ccccc3c2=O)cc1,inactive: -10.4%
8,Cc1sc2ncn(CC(=O)N3CCN(c4ccc(F)cc4)CC3)c(=O)c2c1S(=O)(=O)N1CCCCC1,inactive: -3.12%
9,Cc1cccc2sc(N(CCCN(C)C)C(=O)c3ccc(Cl)s3)nc12,inactive: -2.18%
10,Cc1ccc(Nc2nc3c(S(=O)(=O)c4ccccc4)nnn3c3ccsc23)c(C)c1,inactive: -2.5%
11,Cc1cccc(NC(=O)Cn2nnc(C(=O)Nc3ccc(F)c(Cl)c3)c2N)c1,inactive: -5.32%
12,COc1cc(C2C(C(=O)OCC(C)C)=C(C)N=C3SCCC(=O)N32)ccc1OCc1ccccc1 (stereo not given),inactive: 1.74%
13,COc1cccc(NC(=O)CSc2nc(=O)n(Cc3ccco3)c3c2CCC3)c1,inactive: 0.697%
14,Cc1cc(C)c2nc(N(Cc3cccnc3)C(=O)c3ccc(S(=O)(=O)N(C)C)cc3)sc2c1,inactive: -5.4%
15,Cn1c(C(=O)NCc2ccccc2F)cc2oc3ccccc3c21,inactive: -5.84%
16,CCN1CCN(c2cc3c(cc2F)c(=O)c(S(=O)(=O)c2ccc(OC)cc2)cn3CC)CC1,inactive: 2.58%
17,Cc1c(C(=O)Nc2cccc(C(F)(F)F)c2)sc2nc3n(c(=O)c12)CCCC3,inactive: -0.891%
18,COc1cccc2sc(N(Cc3cccnc3)C(=O)Cc3ccccc3)nc12,inactive: 0.459%
19,O=C(c1ccco1)n1nc(-c2ccccc2)nc1NCc1ccc(F)cc1,inactive: -2.26%
20,CCCCNc1ncnc2c1nnn2C,inactive: -7.5%
21,CCN1CCN(c2oc(-c3ccc(COc4ccc(C)cc4)o3)nc2C#N)CC1,inactive: -1.34%
22,COc1ccc2oc(-c3cccc(NC(=O)c4ccc(C#N)cc4F)c3)nc2c1,inactive: -13.9%
23,CCCCNC(=O)c1ccc2c(c1)NC(=O)C(CS(=O)(=O)Cc1cccc(C)c1)N2 (stereo not given),inactive: -10.1%
24,COc1cccc(NC(=O)Cn2c(=O)n(-c3ccc(Cl)cc3)c(=O)c3oc4ccccc4c32)c1,inactive: -4.78%

row,SMILES,"activity change, negative = inhibition"
1,COc1cc(C(=O)Nc2ccc3[nH]c(=O)sc3c2)cc(OC)c1OC,inactive: -19.9%
2,CC(C)C(=O)N1c2ncnn2C2(CCCCC2)[C@@H]2CCCC[C@@H]21,inactive: -7.56%
3,CC1=C(C(=O)Nc2cccnc2)C(c2cccc(F)c2)n2nc(SCc3ccccc3)nc2N1 (stereo not given),inactive: -12.9%
4,COc1cccc(C(=O)NCC(=O)OCc2cc(=O)n3c(C)csc3n2)c1,inactive: -13.2%
5,CC(C)Cn1c(=O)c2sccc2n2c(CCCC(=O)NCCc3ccccc3)nnc12,inactive: -0.0061%
6,COc1ccc(C2CC(=O)N(Cc3ccc(F)cc3)c3ccccc3S2)cc1 (stereo not given),inactive: 0.338%
7,Cc1ccc(S(=O)(=O)N2CCN(Cc3noc(CCC(=O)N4CCCCC4)n3)CC2)c(C)c1,inactive: -10.8%
8,Cc1nc(Nc2ccc(Cl)cc2)cc(-c2ccccc2)n1,inactive: -12.1%
9,CCOc1ccc(NC(=O)CC2C(=O)N(c3ccccc3)C(=O)N2C2CCCCC2)cc1 (stereo not given),inactive: -16.5%
10,COc1ccccc1CNC(=O)NCc1noc2ccc(C)cc12,inactive: 3.15%
11,O=c1c2cn[nH]c2nc(SCc2cccc(Br)c2)n1-c1ccc(Cl)cc1,inactive: -15.2%
12,Cc1ccn2c(Nc3ccc4c(c3)OCO4)c(-c3ccc(N(C)C)cc3)nc2c1,inactive: 6.07%
13,COc1ccc(CNC(=O)c2nc(SC(C)C)ncc2Cl)cc1,inactive: -7.25%
14,Cc1nc2ccc(S(=O)(=O)CCC(=O)Nc3ccc(C)c(C)c3)cc2s1,inactive: -2.48%
15,CCOC(=O)c1c(-c2ccccc2)csc1NC(=O)c1cc(-c2ccc(Br)cc2)on1,inactive: -18.9%
16,CCOc1ccc(CCNC(=O)CCc2c(C)nc3c(-c4ccccc4)c(C)nn3c2C)cc1OCC,inactive: -6.57%
17,CCOc1ccc(C2=NC(c3ccc(OC)cc3)=Nc3ccc(Cl)cc3N2)cc1,inactive: 5.06%
18,C=CCC(CC=C)(CNC(=O)C(=O)Nc1cc(C)ccc1OC)c1ccc(OC)c(OC)c1,inactive: 4.35%
19,O=C(Cn1cc(S(=O)(=O)N2CCCC2)c(S(=O)(=O)N2CCCC2)c1)Nc1cccc(F)c1,inactive: -7.12%
20,COc1ccccc1CNC(=O)CN1C(=O)COc2ccc(S(=O)(=O)N3CCC(C)CC3)cc21,inactive: -1.14%
21,CCc1ccc(NC(=O)C(C)n2nnc3sc(-c4ccccc4)cc3c2=O)cc1 (stereo not given),inactive: -3.98%
22,COc1ccc(NC(=O)/C(C#N)=C/c2cc(C)n(-c3ccc(F)cc3)c2C)cc1,inactive: 0.913%
23,CCOC(=O)c1cccc(NC(=O)C2CCCN(S(=O)(=O)c3ccc4c(c3)oc(=O)n4C)C2)c1 (stereo not given),inactive: -8.27%
24,CC(C)C(=O)N(Cc1ccccc1)S(=O)(=O)c1ccc2c(c1)oc(=O)n2C,inactive: -8.95%

row,SMILES,"activity change, negative = inhibition"
1,Cc1nc2nc(SCC(=O)O)nn2c(C)c1Cc1c(F)cccc1Cl,inactive: 14.2%
2,Cc1ccc(CN(C(=O)COc2ccc(Cl)c(C)c2)C2CCS(=O)(=O)C2)o1 (stereo not given),inactive: 2.52%
3,Cc1csc2nc(COC(=O)c3ccccc3NC(=O)COc3ccccc3F)cc(=O)n12,inactive: 0%
4,Cc1ccc(Cl)cc1NC(=O)Cn1c(=O)n(CCCS(=O)(=O)C2CCCCC2)c(=O)c2ccccc21,inactive: -12.2%
5,COc1ccc(-c2c3c(=O)n(C)c(=O)n(C)c3c3c(-c4cccc(C)c4)nc4ccccc4n23)cc1,inactive: -3.85%
6,COc1ccc(S(=O)(=O)NCCCO)cc1-c1nnc2c3ccccc3c(C)nn12,inactive: -11.4%
7,COc1ccc2cc3cc(C(=O)N4CCN(c5cccc(Cl)c5)CC4)sc3nc2c1,inactive: 1.79%
8,COc1ccc(NS(=O)(=O)c2ccc3c(c2)CCN3C(=O)CCC(=O)O)cc1Cl,inactive: 1.67%
9,CCc1ccc(-n2c(=O)c3sc4ccccc4c3n(CC(=O)NC3CCCCC3)c2=O)cc1,inactive: 0.223%
10,CC(C)CCNC(=O)CSc1nc2ccccc2nc1Cc1ccccc1,inactive: -15.9%
11,CCOC(=O)c1ccc2c(c1)N(C(CC)C(=O)Nc1ccccc1OC)C(=O)c1ccccc1S2 (stereo not given),inactive: 0%
12,Cc1ccc(NC(=O)Cn2nc(-c3ccncc3)ccc2=O)cc1Cl,inactive: -8.13%
13,Cc1cc(NC(=O)CCS(=O)(=O)c2cc(Br)cc3c2N(C(=O)C2CC2)CC3)ccc1Br,inactive: 2.95%
14,COc1cc2c(cc1OC)C(COc1ccc3c(C)cc(=O)oc3c1)N(C(=O)C(C)C)CC2 (stereo not given),inactive: -21.7%
15,CCOC(=O)c1nc(Nc2ccc(C(C)=O)cc2)c2ccccc2n1,inactive: -15.1%
16,O=C(Nc1c(C(=O)Nc2ccc(F)cc2)oc2ccccc12)c1cc2ccccc2o1,inactive: 2.35%
17,COc1ccc(Cn2c(=O)c3cccnc3n(CC(=O)Nc3ccc(C)c(F)c3)c2=O)cc1,inactive: -6.85%
18,Cc1cc(Oc2c(C(F)(F)F)oc3c(CN4CCC(C)CC4)c(O)ccc3c2=O)cc(C)c1Cl,inactive: -1.39%
19,O=C(Cn1c(=O)oc2cc(S(=O)(=O)N3CCCCCC3)ccc21)NCc1ccccc1Cl,inactive: -16.8%
20,Cc1cccc(-n2ccnc2SCC(=O)Nc2ccc(F)cc2F)c1C,inactive: -6.42%
21,Cc1ccc(C)c(CNC(=O)c2ccc3c(c2)nc2n3CCCCC2)c1,inactive: -14.2%
22,C[C@H](NC(=O)OC(C)(C)C)c1nnc(SCc2c(F)cccc2Cl)o1,inactive: -17.9%
23,COCCCNC(=O)c1cc2c(=O)oc3ccc(C)cc3c2s1,inactive: -5.85%
24,O=C(c1ccc(CSc2nc3ccncc3n2Cc2ccc(F)cc2)cc1)N1CCCCCC1,inactive: 0.702%

row,SMILES,"activity change, negative = inhibition"
1,Cc1ccc(-c2nc3c4ccccc4[nH]c(=O)n3n2)cc1,inactive: -4.01%
2,CCc1nc2ccc(C(=O)N3CCN(c4cccc(C)c4C)CC3)cc2nc1CC,inactive: 3.9%
3,O=C1CC(c2cccc(O)c2)c2c(nc(SCc3ccccc3F)[nH]c2=O)N1 (stereo not given),inactive: 1.13%
4,CCOc1ccc(C(=O)N(Cc2sccc2C)C2CCS(=O)(=O)C2)cc1 (stereo not given),inactive: -1.31%
5,CCOc1ccc(-c2cc(OC(=O)c3ccc(OC)cc3)c3c(C)oc(C)c3c(=O)c2)cc1,inactive: -2.64%
6,CCc1ccccc1NC(=O)Nc1ccc2c(c1)N(CC)C(=O)c1ccccc1S2,inactive: -7.11%
7,CCOc1ccccc1CNC(=O)c1cc2n(n1)CCCN(Cc1ccc(C)cc1)C2=O,inactive: 0%
8,CCOc1ccc(NC(=O)CSc2nc(C)c(C(=O)Nc3ccccc3)c(-c3ccc(Cl)cc3)c2C#N)cc1,inactive: 15.5%
9,CCc1cccc(-n2c(C)nc3c(cnn3-c3ccc(C)c(C)c3)c2=O)c1,inactive: -6.39%
10,O=C(Nc1ccc(OC(F)(F)F)cc1)c1nc2ccccc2nc1N1CCCCC1,inactive: -4.66%
11,COc1cccc(NC(=O)CSc2nc3cc(OC)c(OC)cc3c3nc(-c4ccccc4)nn23)c1,inactive: 1.1%
12,CCn1c2ccccc2c2cc(CN3CCN(Cc4ccccc4Cl)CC3)ccc21,inactive: 4.29%
13,COc1cc(OC)c(NC2(c3ccccc3)C(=O)c3ccccc3C2=O)cc1Cl,inactive: 2.12%
14,CCOC(=O)c1ccc(NC(=O)/C(C#N)=C/c2ccc(OC)cc2)cc1,inactive: -5.6%
15,CCc1ccc(-n2c(=O)c3c(C)c(C)sc3n(CC(=O)NCc3ccc(C)cc3)c2=O)cc1,inactive: 1.47%
16,CCCCc1nn2c(=O)cc(COC(=O)c3cccc(NC(=O)CCc4ccccc4)c3)nc2s1,inactive: 1.16%
17,CCCN(CCC)C(=O)Cn1c(=O)n(-c2ccccc2)c(=O)c2c3c(sc21)CCCC3,inactive: 0.889%
18,N#C/C(=C/c1ccc(Cl)cc1)c1nc(-c2ccc(Br)cc2)cs1,inactive: 2.49%
19,O=S(=O)(NCc1nc2cccnc2n1Cc1ccccc1)c1ccc2c(c1)CCCC2,inactive: -2.13%
20,Cc1ccc(CSc2oc(-c3ccco3)nc2S(=O)(=O)c2ccc(C)cc2)cc1,inactive: -24%
21,COc1cc(/C=C(\C#N)c2nc3ccccc3[nH]2)cc(Cl)c1OCc1ccccc1Cl,inactive: -29.7%
22,Cc1ccc(NS(=O)(=O)c2ccc3[nH]c(=O)oc3c2)c(C)c1,inactive: 0.654%
23,COc1cc2nc(SCC(=O)Nc3c(C)cc(C)cc3C)n3nc(CCn4c(C)nc5ccccc54)nc3c2cc1OC,inactive: 0.865%
